# Test results from article PMC6919601, “Identification of Plasmodium dipeptidyl aminopeptidase allosteric inhibitors by high throughput screening” (PLoS ONE, 2019).
# Out of some 110,000 compounds screened, about 230 (0.21%) showed an effect of 50% or more. Some of the results follow.
# Target: DPAP1 (Plasmodium falciparum, UniProt Q8IIJ9)
# Experiment: primary screen, percent inhibition; read by cleavage of a fluorogenic dipeptide substrate; higher = more effect of the substance
# Set-up: species or system P. falciparum D10 trophozoite lysates; single well
# 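Further: 30 min substrate incubation versus DMSO and 10 µM JCP410 controls.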
# Sequence of DPAP1 (Q8IIJ9 whole entry, looked up): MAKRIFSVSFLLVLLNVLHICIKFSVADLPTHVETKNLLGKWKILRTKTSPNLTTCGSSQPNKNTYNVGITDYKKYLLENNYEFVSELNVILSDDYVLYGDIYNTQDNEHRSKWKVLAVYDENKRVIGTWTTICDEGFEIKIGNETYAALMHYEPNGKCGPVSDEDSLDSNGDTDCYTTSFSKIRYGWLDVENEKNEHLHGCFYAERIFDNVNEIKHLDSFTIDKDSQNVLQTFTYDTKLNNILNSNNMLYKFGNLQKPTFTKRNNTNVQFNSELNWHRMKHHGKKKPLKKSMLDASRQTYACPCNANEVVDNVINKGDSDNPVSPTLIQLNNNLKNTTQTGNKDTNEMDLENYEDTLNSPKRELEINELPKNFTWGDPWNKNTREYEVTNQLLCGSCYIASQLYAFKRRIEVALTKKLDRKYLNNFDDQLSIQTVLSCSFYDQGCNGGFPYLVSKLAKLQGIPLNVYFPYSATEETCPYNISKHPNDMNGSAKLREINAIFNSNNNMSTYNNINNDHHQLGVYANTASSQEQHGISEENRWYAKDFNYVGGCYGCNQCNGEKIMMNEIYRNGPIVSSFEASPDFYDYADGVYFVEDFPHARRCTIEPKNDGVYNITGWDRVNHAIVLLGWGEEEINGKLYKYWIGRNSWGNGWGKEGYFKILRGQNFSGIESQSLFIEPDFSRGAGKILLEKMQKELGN
row,SMILES,% Inhibition @ 10 uM [%]
1,COCc1cc(C)nc(N2CCOCC2)c1C#N,33.4
2,COc1cccc(C2C3=C(O)CC(C)(C)CC3=Nc3nc(SCc4cccnc4)nc(O)c32)c1 (stereo not drawn),7.83
3,CCOC(=O)C1=C(CN(CCOC)Cc2ccco2)NC(=O)NC1c1ccc(OC(C)C)cc1 (stereo not drawn),-1.03
4,COc1ccccc1C(=O)Nc1cccc(NC(C)=O)c1,1.25
5,N=C1/C(=C\c2c[nH]c3ccccc23)C(=O)N=C2SC(N3CCCC3)=NN12,0.0579
6,C=CCN1C(=O)/C(=C\c2ccc(CC)cc2)C(C(=O)OC)=C1C,1.91
7,O=S(=O)(Cc1ccccc1)c1nc2ccccc2n1CCOc1ccccc1,-1.69
8,COc1ccc2[nH]c(C)c(C(C)=O)c2c1,1.38
9,COc1cc(CNC(=O)c2cccnc2SC)cc(OC)c1OC,1.88
10,COC(=O)c1ccc2c(c1)C(C)(C)C(/C=C/c1ccccc1)=[N+]2C,3.47
11,COC(=O)C1=C(C)N(C2CCCCC2)C(=O)/C1=C\c1ccc(Cl)c(Cl)c1,1.27
12,CCOC(=O)C1=C(C)N(c2ccc(OC)cc2)C(=O)/C1=C\c1ccc(OC)c(OC)c1,-3.5
13,Cc1ccc(/C=C2/C(=O)ON=C2c2ccccc2)c(C)c1,-6.93
14,COc1ccc(OC2=N/C(=C\c3ccco3)C(=O)N2c2ccccc2)cc1,-7.25
15,Cc1cccc(C)c1NC(=O)c1c(Cl)cnn1C,3.05
16,CCC(Oc1ccccc1)C(=O)Nc1nnc(S(=O)(=O)N(C)Cc2ccccc2)s1 (stereo not drawn),3.36
17,COc1ccc(S(=O)(=O)NCCOc2ccccc2)cc1-n1cnnn1,-0.403
18,CCN(CC)CCNC(=O)CS(=O)Cc1nc(-c2ccc(C)cc2)oc1C (stereo not drawn),2.37
19,O=C(CSc1nn2cnnc2s1)N(C1CCCCC1)C1CCCCC1,-5.41
20,Cn1ncc(C(=O)N2CCN(C3CCCCC3)CC2)c1C1CCN(C(=O)OC(C)(C)C)CC1,3.44
21,Cc1cc(C(=O)N2CCC(Cc3ccccc3)CC2)on1,-3.45
22,CCCc1cc(O)n2nc(N3C(=O)c4ccccc4C3=O)nc2n1,0.401
23,N#CC1=C(N)Oc2cc(N)ccc2C1c1ccc(F)cc1F (stereo not drawn),0.605
24,O=C(Nc1nc(-c2ccc(Br)cc2)cs1)c1ccc2c(c1)OCO2,-3.71
25,Cc1c(Br)c(C(F)(F)F)nn1CC(=O)NCc1ccc(Cl)cc1,-4.84

row,SMILES,% Inhibition @ 10 uM [%]
1,C(=C\CSc1nc[nH]n1)/CSc1nc[nH]n1,2.03
2,CC(C)(C)c1ccc(OCC(=O)Nc2ccc(S(=O)(=O)N3CCOCC3)cc2)cc1,-3.95
3,Cc1cc(C)n2c(SCc3ccc(C(=O)c4ccccc4)cc3)nnc2n1,3.47
4,CCN(CC)C(=O)/C(=C/c1ccco1)NC(=O)c1ccc(Cl)cc1Cl,0.317
5,CN1CCc2c1nc1ccccc1c2NC(=O)CN1CCCC1,-2.51
6,COc1cccc(C(=O)Nc2ccc(Br)cc2C(=O)O)c1,2.79
7,Cc1cc(NC(=O)c2cc3ccccc3o2)no1,-0.403
8,COc1ccc(C)cc1N(CC(=O)NC(C)C)S(=O)(=O)c1ccccc1,-4.13
9,COc1ccc(-n2cnc3cc(NCc4ccccc4O)ccc32)cc1,1.93
10,CCOC(=O)c1sc(NC(=O)c2cc(=O)c3cc(C)c(C)cc3o2)c(C(=O)OCC)c1C,1.9
11,Cc1n[nH]c(C)c1CCc1nc2c3ccccc3nc(NCCc3ccccc3)n2n1,-6.07
12,Cc1cc(C)c(NC(=O)C2CCCN2CCC(C)C)c(C)c1 (stereo not drawn),2.58
13,COc1ccc(OC)c(C2C3=C(O)CC(C)(C)CC3=NC(C)=C2C(=O)Nc2c(F)cccc2F)c1 (stereo not drawn),-3.46
14,O=C(Cn1ncc2c3ccccc3n(Cc3ccccc3)c2c1=O)N1CCc2ccccc2C1,-1.58
15,O=C(C1CC1)N1CCCN(C(=O)C2CC2)CC1,0.389
16,CC1CCCCC1N(C)C1CCN(C(=O)CNC(=O)/C=C/c2c(Cl)cccc2Cl)CC1 (stereo not drawn),-1.05
17,COc1ccc2c(CNC3CCC(C)CC3)c(C(=O)O)[nH]c2c1 (stereo not drawn),-4.76
18,Cn1c(=O)c2nc(-c3ccccc3O)[nH]c2n(C)c1=O,-5.2
19,COc1ccc2c3c([nH]c2c1)C(CCc1ccccc1)NCC3 (stereo not drawn),2.65
20,Cc1sc2c(c1C)CSCC2=O,-1.57
21,COc1ccc(/C=C/C(=O)c2ccc(OC)cc2)cc1,3.34
22,CC(=O)c1c(O)cc(C(C)(C)C)n(-c2ccccc2)c1=O,-2.45
23,COc1ccccc1NC(=O)c1ccc(NC(=O)C(C)C)cc1,0.316
24,CCCNC(=O)c1nnc(Cc2cccc(F)c2)o1,-3.18
25,N/C(=N\c1ccccc1)Nc1nc(O)cc(CSc2ccc(Cl)cc2)n1,-8.41

row,SMILES,% Inhibition @ 10 uM [%]
1,Cc1cc(Br)ccc1NC(=O)c1ccc(F)cc1,-2.51
2,CC(=O)NS(=O)(=O)c1ccc(NC(=O)COc2ccc(Cl)cc2)cc1,0.245
3,COC(=O)c1cnn2c1NCN(Cc1ccccc1)C2,-2.88
4,COc1cccc(C(=O)NC2CCCCCC2)c1,-0.69
5,CCOc1ccc(N2C(=O)CC(N3CCC(C)CC3)C2=O)cc1 (stereo not drawn),-0.988
6,CCc1ccc(CNCc2c(C(=O)O)[nH]c3cc(C)ccc23)cc1,1.8
7,CCCCC1CCC(C(=O)N(Cc2cccc(F)c2)C2CCS(=O)(=O)C2)CC1 (stereo not drawn),6.67
8,CCc1nc(=O)c2c(COC)cc(C)nc2n1Cc1ccccc1,0.883
9,CCOC(=O)C1=C(N)Oc2ccc3ccccc3c2C1c1ccc(Br)cc1 (stereo not drawn),1.26
10,CCOc1ccc(/C=C2\N=C(c3ccc(OC)cc3)OC2=O)cc1,3.58
11,Cc1ccnc2c(NCN3C(=O)C4CC=C(Cl)CC4C3=O)cccc12 (stereo not drawn),2.7
12,COc1ccc(CNC(=O)C2CCCN(S(=O)(=O)N3CCC4(CC3)OCCO4)C2)cc1 (stereo not drawn),-4.37
13,O=C(Nc1ccc(S(=O)(=O)NCCc2ccccc2)cc1)C1CC1,1.27
14,OC1CCCN(Cc2c(F)cccc2F)C1 (stereo not drawn),-3.5
15,C/C(=C\c1ccccc1)CN1CCN(Cc2ccccc2)CC1,1.74
16,COc1ccc(S(=O)(=O)N2CC=C(C(=O)Nc3nccs3)CC2)cc1,-6.95
17,CCC(=O)N1CCN(C(=O)CC)C1c1ccccc1,-7.18
18,Cc1cccc(N2CCN(C(=O)c3cc(C)oc3C)CC2C)c1 (stereo not drawn),2.63
19,Cn1cc(C[C@H](NC(=O)c2ccc(-c3ccccc3Cl)cc2)C(=O)NCC#N)c2ccccc21,-12.7
20,Cc1ccc2c(c1Br)C1(C(=O)N2)C(C#N)=C(N)Oc2[nH]nc(-c3ccc(F)cc3)c21 (stereo not drawn),0.777
21,COc1ccccc1CNC(=O)c1cccc(C)c1,5.35
22,CC(=O)c1c(N2CCCC2)nc(=O)n(-c2ccccc2)c1C,1.27
23,Cc1cc(C(=O)N2CCC3(CC2)OCCO3)c2c(C)nn(-c3ccccc3Cl)c2n1,0.44
24,c1ccc2c(c1)CCOC2CNCC1COc2ccccc2O1 (stereo not drawn),3.56
25,CC1(C)C(C(=O)N2CCN(C(=O)c3ccccc3)CC2)C1(C)C,7

row,SMILES,% Inhibition @ 10 uM [%]
1,COc1ccc(C(=O)Nc2c(-c3ccc(F)cc3)nc3cc(C)ccn23)cc1,-3.48
2,Cc1cc(C)nc(NC(=O)C(C)Oc2ccc(Cl)cc2Cl)c1 (stereo not drawn),2.03
3,CCN(CC)S(=O)(=O)c1ccc(OC)c(OC)c1,3.51
4,CC(C)CSC(CC(=O)O)C(=O)O (stereo not drawn),-3.48
5,Cc1cc(C)c(C)c(S(=O)(=O)NCC(=O)Nc2ccc(F)cc2)c1C,0.145
6,CN1C(=O)c2ccccc2C(C(=O)NCCCN2CCOCC2)C1c1c[nH]c2ccccc12 (stereo not drawn),5.19
7,Nc1nnc(SCC(=O)N2CCc3ccccc3C2)s1,4.66
8,O=c1oc2ccccc2c(O)c1/C=N/c1ccccn1,7.75
9,CC(CNC(=O)c1ccc2c(c1)OCO2)NC(=O)c1ccc2c(c1)OCO2 (stereo not drawn),-5.6
10,CC1CC(C)CN(C(=O)c2cc3c(=O)oc4ccccc4c3s2)C1 (stereo not drawn),3.54
11,Cc1cc(C(=O)CN2CCN(C)CC2)c(C)n1-c1ccc(-c2ccccc2)cc1,-3.04
12,Cc1sc(NC(=O)c2ccc(Br)o2)c(C(N)=O)c1C,9.37
13,CCCC[C@H](NC(=O)C(Cc1c(F)cccc1F)NC(=O)c1ccc(-c2ccccc2Cl)cc1)C(=O)c1nnc(-c2ccncc2)o1 (stereo partly drawn),4.33
14,O=C(NC1CCCCCC1)C1c2ccccc2C(=O)N1Cc1ccccc1 (stereo not drawn),1.16
15,COc1ccc(S(=O)(=O)NCc2ccc(C(=O)NCCc3ccc(Cl)cc3)cc2)cc1,-9.18
16,OC1CCN(Cc2c[nH]c3ccccc23)CC1,1.48
17,Cc1c2cnn(CC(=O)NCCCN3CCOCC3)c(=O)c2c(C)n1Cc1ccc(F)cc1,-5.81
18,Cc1ccc(NC(=O)CCN2C(=O)c3ccccc3C2=O)c(Br)c1,6.24
19,COc1cccc(C2C3CC(C(C)(C)C)CC=C3C(C#N)=C(N)C2(C#N)C#N)c1O (stereo not drawn),2.8
20,O=C(CCc1ccccc1)n1nc(-c2ccco2)nc1NCc1ccc(Cl)cc1,0.248
21,CCOc1ccc(OCC)c(C2C(C#N)=C(N)Oc3c2c(C)nn3-c2ccccc2)c1 (stereo not drawn),1.02
22,CCOCCCNC(=O)/C(C#N)=C/c1c(Oc2cccc(C)c2)nc2ccccn2c1=O,4.06
23,O=C(Nc1ccc(F)cc1)C1CCC(N2C(=O)c3ccccc3C2=O)CC1 (stereo not drawn),-2.92
24,Cc1nc(-n2nnc3cc(C)c(C)cc32)c2c3c(sc2n1)CCC3,0.147
